The series can be described thus: In vitro release testing (IVRT), static vertical diffusion cell, synthetic membrane, UV-VIS analysis. The class given is physicochemical. Particulars: 0.5% Xylene Cyanol in Petrolatum, infinite dose, amount released vs square root of time, per run. As for the experimental part:
In Vitro Release Testing Method.
Release of pharmaceutically active compounds from semi-solid dosage forms was evaluated in an in vitro model of static vertical diffusion cell using a synthetic membrane model. […] The samples were analyzed using a UV-VIS spectrometer. […]
Test time points: 0, 2, 4, 6, 8, and 10 hours. Each test was conducted in four replicates (N=4). Square root of test time points: 0, 1.41, 2.00, 2.45, 2.83, and 3.16.
Membrane: Polypropylene (pore size: 0.45 micron).
Static vertical diffusion cell parameters: Area of the membrane diffusion area: 0.95 square centimeters.
Dosing level: infinite dose at about 3.0 milliliter of the semi-solid dosage form.
Static vertical diffusion cell consists of a donor and receptor compartment separated by a synthetic membrane. The dosing compartment was for the dosed semi-solid dosage form. […] Before dosing, the diffusion cell was pre-incubated at 32° C. for about 20 to 45 minutes. The t=0 samples were taken after the incubation period prior to dosing.
During the experiment, the receptor fluid was in intimate contact with the membrane through a mixing mechanism, such as, e.g., magnetic stirring bar, or orbit shaker, and maintained at 32° C. using a heating mechanism, such as, e.g., dry heat block, or circulating water bath. […]

Not every entry of the source has a single result; some have several. They are shown here; other results are not. There may be further records. Values given together appear to be repeats (runs, samples, wells or individuals); a mean can stand among them.

For the compound `CCN=C1C=CC(=C(c2ccc(NCC)c(C)c2)c2ccc(S(=O)(=O)[O-])cc2S(=O)(=O)O)C=C1C.[Na+]` [Xylene Cyanol], the “Slope (release rate)” value by setting is: (receptor fluid: 1-Octanol:H2O 1:1 v:v) 1.9686 mcg/cm2/h^0.5, 2.2516 mcg/cm2/h^0.5, 2.1875 mcg/cm2/h^0.5, 2.4026 mcg/cm2/h^0.5 [columns of one line]; (receptor fluid: 1-Octanol:PBS Buffer pH 7.4 1:1 v:v) 1.1014 mcg/cm2/h^0.5, 1.4283 mcg/cm2/h^0.5, 1.0060 mcg/cm2/h^0.5, 1.0163 mcg/cm2/h^0.5 [columns of one line].

These data come from patent US20180292376A1, “DIFFUSION CELL TESTING METHODS CONTAINING BIPHASIC RECEPTOR FLUIDS” (BUFFERAD Illinois Inc. d/b/a Zyleris PharmaTech, Inc., priority 2017, published 2018).
